Sequences with one replicate were seen in a single cluster, so their values are uncertain.
Test system: ATP
Experiment: switch fluorescence ratio, 500 uM ATP over buffer (Cy3 cluster intensity, sum of 5 cycles each) (fold (ratio)); higher = stronger signal-on switching upon ATP binding; sequences stand for … in TCGTCGGCAGCGTCAGATGTGTATAAGAGACAGTTTTTTTTTTTTTTTTTTTTTTTTT…TC
Conditions: aptamer strand: ATP DNA aptamer (quencher-CACCTGGGGGAGTATTGCGGAGGAAGG + anchor), 100 nM annealed; ATP concentration: 500 uM; one replicate
Procedure, shortened: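 Between each of five buffer/ATP cycles, the flow-cell was stripped with NaOH and re-annealed. Each cycle imaged Cy3-labelled switching-strand clusters, annealed to 100 nM quencher-labelled ATP aptamer on a modified Illumina MiSeq flow-cell, first in selection buffer and then after 15 min with 500 uM ATP at 22 °C. The fluorescence ratio is summed target-cycle over summed buffer-cycle Cy3 intensity per cluster, averaged per switch-domain sequence, with clusters outside 100-1000 RFU excluded.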
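Also: ATP exposure 15 min at 22 °C before imaging.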

| Sequence | switch fluorescence ratio |
| --- | --- |
| TGCGCAAGGT | 1.11 |
| TGCGCATTGG | 1.22 |
| TGCGCCTAGG | 0.951 |
| TGCGCGTTAG | 1.06 |
| TGCGCTCCGC | 2.61 |
| TGCGGAACGG | 0.998 |
| TGCGGAGAAA | 0.981 |
| TGCGGATAAG | 1.01 |
| TGCGGATTCC | 1.04 |
| TGCGGCTTAG | 1.05 |
| TGCGGGATC | 1.01 |
| TGCGGGATTC | 1.03 |
| TGCGGGGCCC | 0.946 |
| TGCGTAAAAG | 1.03 |
| TGCGTAAATT | 1 |
| TGCGTCAGTC | 0.96 |
| TGCGTCCCAT | 0.976 |
| TGCGTTAGTT | 0.963 |
| TGCGTTATG | 1.03 |
| TGCGTTGGTT | 0.989 |
| TGCGTTTACT | 1.52 |
| TGCTACGCC | 1.24 |
| TGCTAGAAAG | 0.978 |
| TGCTAGCCCC | 1.02 |
| TGCTAGGTTT | 0.982 |
| TGCTATAATT | 0.942 |

| Sequence | switch fluorescence ratio |
| --- | --- |
| TGCTATATGC | 0.964 |
| TGCTATATTG | 0.99 |
| TGCTCACA | 1.02 |
| TGCTCGAGGG | 0.971 |
| TGCTCTTACG | 1.02 |
| TGCTGGCTGT | 0.989 |
| TGCTGGGACG | 1.14 |
| TGCTGTACTT | 1.03 |
| TGCTGTAGCG | 0.989 |
| TGCTGTTGAC | 0.996 |
| TGCTGTTGGG | 0.977 |
| TGCTTAGATG | 0.938 |
| TGCTTCCTAT | 1.09 |
| TGCTTGAACG | 0.987 |
| TGCTTGAAGG | 1.04 |
| TGCTTGAGAG | 1.04 |
| TGCTTGGCGC | 0.97 |
| TGCTTGTTG | 1.02 |
| TGCTTTAACA | 1.02 |
| TGCTTTACCC | 1.04 |
| TGCTTTCTCA | 1.07 |
| TGGAAACAGG | 1.1 |
| TGGAAAGCAT | 1.02 |
| TGGAAAGTCA | 1 |
| TGGAAATAAT | 1.01 |
| TGGAAATATG | 1.06 |

| Sequence | switch fluorescence ratio |
| --- | --- |
| TGGAAATCGG | 0.935 |
| TGGAAATGTA | 0.973 |
| TGGAAGAAAC | 1.05 |
| TGGAATCTGC | 0.998 |
| TGGAATTTCC | 1.06 |
| TGGACAAGAT | 1.02 |
| TGGACAAGTG | 0.98 |
| TGGACACCG | 1.01 |
| TGGACAGAAT | 0.949 |
| TGGACCAGGC | 1.03 |
| TGGACCGTTT | 1.01 |
| TGGACGCTT | 1.01 |
| TGGACGGTTT | 0.939 |
| TGGACTGTGC | 1.03 |
| TGGAGAATAG | 1.09 |
| TGGAGACGAG | 1.01 |
| TGGAGCACGT | 1.05 |
| TGGAGCAGGC | 1.12 |
| TGGAGCGCAG | 1.02 |
| TGGAGGAATA | 1.61 |
| TGGAGGCCGG | 0.927 |
| TGGAGGCGTT | 0.957 |
| TGGAGGGCGG | 1.01 |
| TGGAGTTTTG | 0.976 |
| TGGATACGTC | 0.986 |
| TGGATATATG | 0.982 |

| Sequence | switch fluorescence ratio |
| --- | --- |
| TGGATATTCG | 1.01 |
| TGGATCAGAC | 1.07 |
| TGGATCGGCG | 1.01 |
| TGGATCTATA | 1.01 |
| TGGATGGCAA | 1.02 |
| TGGATGTTAG | 0.995 |
| TGGCAAAAGA | 1.09 |
| TGGCAAATAT | 1.01 |
| TGGCAACAAG | 1.01 |
| TGGCACAATA | 1.01 |
| TGGCACCGGC | 0.997 |
| TGGCACGGGG | 1.02 |
| TGGCAGCGCG | 1.01 |
| TGGCATAAGG | 1.02 |
| TGGCATGTT | 1.05 |
| TGGCCCAGAG | 1.07 |
| TGGCCCTGCC | 0.984 |
| TGGCCGACGA | 0.994 |
| TGGCCGAGGA | 0.971 |
| TGGCCGCACC | 3.1 |
| TGGCCGTGGG | 0.978 |
| TGGCCTAGCT | 1 |
| TGGCCTAGGA | 1.02 |
| TGGCCTTTAT | 0.995 |
| TGGCGACGGG | 1.04 |
| TGGCGCAGG | 1.03 |

| Sequence | switch fluorescence ratio |
| --- | --- |
| TGGCGCTCAG | 1 |
| TGGCGTATTG | 1.01 |
| TGGCGTGCGA | 1.03 |
| TGGCGTGCGC | 1.12 |
| TGGCTACGC | 1 |
| TGGCTCAATT | 0.966 |
| TGGCTTAGGT | 0.978 |
| TGGCTTCTTT | 0.994 |
| TGGCTTTTCC | 0.971 |
| TGGGAAACGA | 1.01 |
| TGGGAAAGTA | 1 |
| TGGGAATAC | 2.67 |
| TGGGAATCGG | 0.995 |
| TGGGAATTGC | 1.01 |
| TGGGACAGC | 1 |
| TGGGACATTG | 0.993 |
| TGGGACTTCA | 0.958 |
| TGGGAGCACG | 1.01 |
| TGGGAGGATC | 1.05 |
| TGGGAGTTAC | 1.04 |
| TGGGATAATA | 0.989 |
| TGGGCATCGG | 0.973 |
| TGGGCCAACC | 0.989 |
| TGGGCCCAGC | 0.975 |
| TGGGCGACAC | 1.02 |
| TGGGCGAGGT | 1.01 |

| Sequence | switch fluorescence ratio |
| --- | --- |
| TGGGCGGCTG | 0.991 |
| TGGGCGGTCC | 1.01 |
| TGGGCGTGCT | 1 |
| TGGGCGTGTC | 0.982 |
| TGGGCTTGAC | 1.37 |
| TGGGGAACGA | 1.04 |
| TGGGGAACGT | 0.993 |
| TGGGGAAGA | 0.908 |
| TGGGGAGTAC | 1.05 |
| TGGGGCACGC | 0.997 |
| TGGGGCCTCT | 1.02 |
| TGGGGCGGCA | 0.975 |
| TGGGGGGGC | 1.01 |
| TGGGGGTA | 1.01 |
| TGGGGGTCC | 0.974 |
| TGGGGTTGT | 0.964 |
| TGGGTACCTC | 1.09 |
| TGGGTACCTG | 1.01 |
| TGGGTATTG | 1.01 |
| TGGGTCAGA | 0.994 |
| TGGGTCCTAG | 0.956 |
| TGGGTCCTCC | 1.01 |
| TGGGTGGTCC | 1 |
| TGGGTTCAGT | 0.992 |
